Measurements: the supplement of paper PMC9334596
“And” between values parts separate entries of the source, which are not always exact repeats. Identical values can stand only once. Whole data set: some 5,300 compounds, median “PER2::LUC luminescence relative to vehicle control” near 0.96, cut for the highest 2% near 1.3. This is one part of the list.

System: mPer2Luc MEF
Assay: PER2::LUC luminescence relative to vehicle control (fold of vehicle); higher = higher PER2::LUC reporter signal
Conditions: 10 µM
Summary of the method: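 Each value gives PER2::LUC luminescence as fold of vehicle control, measured with the ONE-Glo luciferase assay system in mouse embryonic fibroblasts carrying the mPer2Luc reporter. Cells grown in DMEM with 10% FBS at 37 °C and 5% CO2 were seeded at ~3000 per well in 384-well plates. Library compounds were added at 10 μM 48 h later, and readings were taken 24 h and 30 h after treatment.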

Compound | PER2::LUC luminescence (time after treatment 24 h) | PER2::LUC luminescence (time after treatment 30 h)
CNCC[C@H](Oc1ccc(C(F)(F)F)cc1)c1ccccc1 | 0.717 | 0.709
CCCCC(=O)O[C@]1(C(=O)CO)[C@@H](C)C[C@H]2[C@@H]3CCC4=CC(=O)C=C[C@]4(C)[C@@]3(F)[C@@H](O)C[C@@]21C | 0.684 and 0.795 | 1.37 and 1.15
COc1cc2nc(N3CCN(C(=O)C4CCCO4)CC3)nc(N)c2cc1OC (stereo unspecified) | 0.991 and 0.919 | 0.924 and 0.931
Nc1ncnc2c1c(-c1ccc(Oc3ccccc3)cc1)nn2C1CCCC1 | 0.655 | 0.662
Oc1ccc(O)cc1 | 1.05 | 1.29
CN1CCN(c2cccc(Nc3nc4c(-c5ccc(S(C)(=O)=O)cc5)cccn4n3)c2)CC1 | 0.464 | 0.598
C[C@H]1C[C@H]2[C@@H]3CCC4=CC(=O)C=C[C@]4(C)[C@@]3(Cl)[C@@H](O)C[C@]2(C)[C@@]1(O)C(=O)CO | 0.657 | 0.815
CC1=C2C(O)C(=O)OC3CC4C(C)(C)C(=O)C=C[C@]4(C)C(CC1)[C@]23C (stereo partly specified) | 0.961 | 0.929
Cc1nc(N=Nc2ccc(C(=O)O)cc2)c(COP(=O)(O)O)c(C=O)c1O | 0.86 | 0.966
CN[C@@H](C)C(=O)N[C@H](C(=O)N1CCC[C@H]1C(=O)Nc1snnc1-c1ccccc1)C1CCCCC1 | 1 | 1.04
CC1CCC(NC(=O)N(CCCl)N=O)CC1 (stereo unspecified) | 1.27 | 1.02
CC(=O)c1ccc2c(c1)C1C=CCC1C(c1cc3c(cc1Br)OCO3)N2 (stereo unspecified) | 1.02 | 0.942
Nc1ccc(S(=O)(=O)Nc2ccc(Cl)nn2)cc1 | 1.05 and 1.04 | 1.03 and 0.996
CNC(=O)c1nn(C)c2c1C(C)(C)Cc1cnc(Nc3ccc(N4CCN(C)CC4)cc3)nc1-2 | 0.62 | 0.605
CC(C)(O)CC[C@@H](O)[C@](C)(O)[C@H]1CC[C@@]2(O)C3=CC(=O)[C@@H]4C[C@@H](O)[C@@H](O)C[C@]4(C)[C@H]3CC[C@]12C | 1.03 and 0.858 | 0.946 and 1.03
Cc1cc2nc3ccc(N(C)C)cc3[s+]c2cc1N | 0.712 | 0.54
CC1CCN=C(N)S1 (racemic) | 1.03 | 0.959
COC1=C(O)C(=O)c2c(cc3oc(C(C)=O)c(O)c3c2O)C1=O | 1.03 | 1.03
Cc1cc2c(cc1CC(=O)c1sccc1S(=O)(=O)Nc1onc(C)c1Cl)OCO2 | 1.02 and 0.92 | 0.932 and 0.885
O=C(O)Cc1ccc(-c2ccccc2)cc1 | 1.01 and 0.936 | 1.01 and 0.946
O=C(NC[C@H]1CN(c2ccc(N3CCOCC3=O)cc2)C(=O)O1)c1ccc(Cl)s1 | 1.04 | 1.04

Compound | PER2::LUC luminescence (time after treatment 24 h) | PER2::LUC luminescence (time after treatment 30 h)
C[C@@H]1C[C@H]2[C@@H]3C[C@H](F)C4=CC(=O)C=C[C@]4(C)[C@@]3(F)[C@@H](O)C[C@]2(C)[C@@]1(O)C(=O)CO | 0.741 | 1.1
CC[C@H](/C=C/[C@@H](C)[C@H]1CC[C@H]2[C@@H]3CC=C4C[C@@H](O)CC[C@]4(C)[C@H]3CC[C@]12C)C(C)C | 1.09 | 1.02
COC(=O)C(O)CCn1cnc2c(N)ncnc21 (stereo unspecified) | 0.95 | 0.999
Fc1ccc2nc(CCC#Cc3ccccn3)cn2c1 | 1.02 | 1.11
O=C(O)c1cn(-c2ccc(F)cc2)c2cc(N3CCNCC3)c(F)cc2c1=O | 1.09 | 0.989
c1ccc(NCc2ccc(CNc3ccccn3)cc2)nc1 | 1.02 and 0.964 | 1.07 and 0.953
CC(=O)OCC(=O)[C@@]1(O)[C@@H](C)C[C@H]2[C@@H]3CCC4=CC(=O)C=C[C@]4(C)[C@@]3(F)[C@@H](O)C[C@@]21C | 0.552 | 0.966
COC(=O)c1ccc2c(c1)nc(NC(=O)c1ccccc1)n2CCCc1ccccc1 | 1.09 | 0.933
Cc1nnc(C(=O)NC(C)(C)c2nc(C(=O)NCc3ccc(F)cc3)c(O)c(=O)n2C)o1 | 1.02 and 1.12 | 0.959 and 1.11
CO[C@H]1C[C@H](O[C@@H]2/C(C)=C/C[C@@H]3C[C@@H](C[C@]4(CC[C@H](C)[C@H](C5CCCCC5)O4)O3)OC(=O)[C@H]3C=C(C)/C(=N\O)[C@H]4OCC(=C/C=C/[C@@H]2C)[C@@]34O)O[C@@H](C)[C@@H]1O | 0.989 | 0.929
CC(=O)Oc1ccc2c(c1OC(C)=O)OCC1(O)Cc3c(cc(OC(C)=O)c(OC(C)=O)c3OC(C)=O)C21 (stereo unspecified) | 0.911 | 0.792
CC(C)CC(N)=O | 1.01 | 0.845
NC(=NC1C2CC3CC(C2)CC1C3)Nc1ccc(I)cc1 (stereo unspecified) | 1.02 | 0.987
CN1CCN(C2=Nc3ccccc3Oc3ccc(Cl)cc32)CC1 | 0.954 and 0.682 | 0.911 and 1.04
N=C(NCCCCCCNC(=N)NC(=N)Nc1ccc(Cl)cc1)NC(=N)Nc1ccc(Cl)cc1 | 0.586 and 0.382 and 0.326 | 0.624 and 0.34 and 0.35
NCc1ccccc1CC(=O)N[C@@H]1C(=O)N2C(C(=O)O)=C(CSc3nnnn3CC(=O)O)CS[C@H]12 | 0.958 | 0.913
COc1ccc2c(OCc3nnc4ccc(-c5ccccc5)nn34)ccnc2c1 | 1.01 | 0.888
COc1c2occc2cc2ccc(=O)oc12 | 1 and 0.872 and 0.582 | 1.06 and 0.888 and 0.73
CC(C)c1ccc(C(=O)N=C(N)N)cc1S(C)(=O)=O | 1.02 | 0.943
Oc1ccc2ccccc2c1 | 1.07 and 1.1 | 1.03 and 1.09
CCOC(=O)[C@@H](N)Cc1ccc(-c2cc(O[C@H](c3ccc(Cl)cc3-n3ccc(C)n3)C(F)(F)F)nc(N)n2)cc1 | 0.925 | 1.06

Compound | PER2::LUC luminescence (time after treatment 24 h) | PER2::LUC luminescence (time after treatment 30 h)
Cc1cc2sc(NC(=O)Cc3ccccc3)nc2cc1Cl | 1.02 | 1.38
COC(=O)c1cc(O)c(=O)c2c(O)c(O)ccc2c1 | 0.836 | 0.924
O=C(Nc1cccc(Cl)c1)c1ccccn1 | 1.65 | 1.48
C[C@@H]1C[C@H]2O[C@@H]2/C=C\C=C\C(=O)Cc2c(Cl)c(O)cc(O)c2C(=O)O1 | 0.116 | 0.177
C[N+]1(C)CCC(OC(=O)C(O)(c2ccccc2)C2CCCC2)C1 (stereo unspecified) | 1.07 | 1.03
COc1ccc(CNC(=O)c2sc3nc(C)cc(C)c3c2N)cc1 | 0.953 | 0.979
CCCCCCCCCCCCCCCCCCOCC(O)CO (stereo unspecified) | 0.848 | 0.965
CC(=O)NC[C@H]1CN(c2ccc(-c3ccc(CNCc4cnn[nH]4)cc3)c(F)c2)C(=O)O1 | 1.03 | 1.09
COC1=C[C@@H](C)[C@@H]2C[C@H]3OC(=O)C[C@H]4C(C)=C(OC)C(=O)[C@H]([C@@]2(C)C1=O)[C@@]34C | 0.928 | 0.9
N#Cc1ccc(C(c2ccc(C#N)cc2)n2cncn2)cc1 | 0.794 | 1.11
C[C@@]1(C(=O)Nc2ccc(F)nc2)CCCN1c1nc(Nc2cc(C3CC3)n[nH]2)c2cccn2n1 | 0.365 | 0.387
Clc1ccc(CCC(Cn2ccnc2)Sc2c(Cl)cccc2Cl)cc1 (stereo unspecified) | 1.09 | 1.22 and 1.09
CCCCCc1c2c(cc(O)c1C(=O)O)OC(=O)c1c(cc(OC)cc1C(=O)CCCC)O2 | 0.957 | 0.919
CN(C)C(=O)Nc1cccc(-c2ccc(N(C)C)cc2)c1 | 1.15 | 1.15
N[C@H](C(=O)O)c1ccc(O)c(C(=O)O)c1 | 1.02 | 0.987
COc1ccc([C@@H]2CC(=O)c3c(O)cc(O)cc3O2)cc1O | 1.03 and 1.23 | 1.09 and 1.32
CCOC(=O)c1cc(C#N)c(N2CCC(C(=O)NS(=O)(=O)Cc3ccccc3)CC2)nc1C | 1.17 | 1.07
CN(C)CCCN1c2ccccc2Sc2ccc(C(F)(F)F)cc21 | 0.395 | 0.483
O=Cc1c2[nH]c3ccccc3c2cc2[nH]c3ccccc3c12 | 1.54 | 1.5
CC(=O)Oc1ccccc1C(=O)Nc1ncc([N+](=O)[O-])s1 | 0.826 | 1.16
COc1cc(C(=O)O[C@H]2C[C@@H]3CC[C@]2(C)C3(C)C)ccc1O | 1.15 | 1.19

Compound | PER2::LUC luminescence (time after treatment 24 h) | PER2::LUC luminescence (time after treatment 30 h)
Oc1cc(O)c2c(c1)O[C@H](c1ccc(O)c(O)c1)[C@@H](O)C2 | 1.12 | 0.775
O=C(NN=Cc1ccc(O)c(O)c1)c1cc2ccccc2cc1O | 1.22 | 1.3
C[N+]1(C)CCC(OC(=O)C(c2ccccc2)c2ccccc2)CC1 | 1.15 and 0.92 | 1.24 and 0.978
NC(=O)c1ccc(N(C(N)=O)c2c(F)cccc2F)nc1-c1ccc(F)cc1F | 0.823 | 0.925
CC1(C)OC(=O)C(OCC2CC2)=C1c1ccc(S(C)(=O)=O)cc1 | 0.969 | 0.862
CC(N/C(=N\C#N)Nc1ccncc1)C(C)(C)C (stereo unspecified) | 1.03 and 1 | 1.09 and 0.951
CCCCC(O)c1ccccc1 (stereo unspecified) | 0.988 | 1.01
CCCc1cc(C)[nH]c(=O)c1CNC(=O)c1cc(-c2ccc(N3CCN(C(C)C)CC3)nc2)cc2c1cnn2C(C)C | 0.482 | 0.579
O=c1cc(-c2ccccc2)oc2c(O)c(O)ccc12 | 0.582 | 0.632
CCCCOCCOCCOCc1cc2c(cc1CCC)OCO2 | 1 | 0.843
CCN(CC)CCOC(=O)C1(C2CCCCC2)CCCCC1 | 0.758 | 0.811
O=C1O[C@H]([C@@H](O)CO)C(O)=C1OP(=O)(O)O | 0.979 | 0.992
O=C1c2c(O)cccc2Cc2cccc(O)c21 | 1.01 | 1.07
CN[C@@H](C)C(=O)N[C@H](C(=O)N1CCC[C@H]1c1nc(C(=O)c2ccc(F)cc2)cs1)C1CCCCC1 | 0.878 | 0.789
COc1cc([C@@H]2CC(=O)c3c(O)cc(O)cc3O2)ccc1O | 0.985 | 0.942
COc1c(C)c(C(=O)c2ccc(N)c(C(=O)O)c2)n2ccccc12 | 1.05 | 1.09
O=S(=O)(O)c1cc(N=C=S)ccc1/C=C/c1ccc(N=C=S)cc1S(=O)(=O)O | 0.832 | 0.684
CO[C@H]1C[C@H](O[C@H]2[C@H](C)O[C@@H](O[C@@H]3/C(C)=C/C[C@@H]4C[C@@H](C[C@]5(C=C[C@H](C)[C@@H](C6CCCCC6)O5)O4)OC(=O)[C@@H]4C=C(C)[C@@H](O)[C@H]5OC/C(=C\C=C\[C@@H]3C)[C@]54O)C[C@@H]2OC)O[C@@H](C)[C@@H]1O | 0.999 | 0.904
C#CC(N)CCC(=O)O (stereo unspecified) | 0.982 | 1.04
COc1cc(C(=O)OCCCN2CCCN(CCCOC(=O)c3cc(OC)c(OC)c(OC)c3)CC2)cc(OC)c1OC | 0.605 and 0.307 | 0.587 and 0.498
